Measured values taken from the supplement of paper PMC10126150.
Sequences with one replicate were seen in a single cluster, so their values are uncertain.

What follows are sequences tested on ATP (assay: switch fluorescence ratio, 500 uM ATP over buffer (Cy3 cluster intensity, sum of 5 cycles each) (fold (ratio)); higher = stronger signal-on switching upon ATP binding; sequences stand for … in TCGTCGGCAGCGTCAGATGTGTATAAGAGACAGTTTTTTTTTTTTTTTTTTTTTTTTT…TC). Details: aptamer strand: ATP DNA aptamer (quencher-CACCTGGGGGAGTATTGCGGAGGAAGG + anchor), 100 nM annealed; ATP concentration: 500 uM; one replicate.
Procedure, shortened: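 Between each of five buffer/ATP cycles, the flow-cell was stripped with NaOH and re-annealed. Each cycle imaged Cy3-labelled switching-strand clusters, annealed to 100 nM quencher-labelled ATP aptamer on a modified Illumina MiSeq flow-cell, first in selection buffer and then after 15 min with 500 uM ATP at 22 °C. The fluorescence ratio is summed target-cycle over summed buffer-cycle Cy3 intensity per cluster, averaged per switch-domain sequence, with clusters outside 100-1000 RFU excluded.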
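Note: ATP exposure 15 min at 22 °C before imaging.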

Row | Sequence | switch fluorescence ratio
1 | AACTAGTTGT | 1.02
2 | AAGAAAACCG | 1.01
3 | GCGCAGGGAA | 0.973
4 | TTTAACGGTA | 1.06
5 | ACGGGCATAG | 1.06
6 | TGACGTGGGT | 1.01
7 | TAATCAGTTG | 0.987
8 | CACACGGGCT | 0.996
9 | ATGTCCTAAA | 0.971
10 | TCCTAACAGC | 1.09
11 | GTAGGGAGTC | 1
12 | ATGTACCTGG | 0.983
13 | TTGTTTGAAT | 0.984
14 | TGACTAGATA | 0.994
15 | TACGTGGTC | 1.02
16 | CGTACATATG | 1.02
17 | ATATTTGGGT | 1.01
18 | ATTTAGAAGC | 1.01
19 | AAAAGGTACG | 1.01
20 | CCTGCTGGGG | 1
21 | CGTAGCAGTG | 1.6
22 | GAGCTACATA | 1.04
23 | TAGGATGCGT | 0.985
24 | TGCCATAGGG | 1.01
25 | AGAAATGGTT | 1.34
26 | ACGGCTTACA | 1.12

Row | Sequence | switch fluorescence ratio
27 | TAAATTGTCT | 0.99
28 | GGGATTTAAT | 0.996
29 | CGTGTCCACA | 0.998
30 | TAATTATACC | 0.996
31 | AAAGTGGCGG | 0.983
32 | TAGGCGAGAT | 0.985
33 | AGTTGTCTGA | 0.93
34 | CGTTCGTACT | 0.976
35 | CGCGAATATG | 0.994
36 | GAGCGCGGAC | 1.35
37 | TGTTTTCTTC | 1.02
38 | TCCACTGCTG | 1.09
39 | TACTGCATCT | 1.02
40 | TCCTGTAATG | 1.02
41 | GATTTTAGGC | 0.958
42 | ACACGTTT | 1.02
43 | GTTATATGGG | 0.943
44 | GTTCGAGTAG | 0.985
45 | GGATATTAAG | 0.985
46 | CCCTGGGCGT | 1.15
47 | CATGAGCTTC | 1.06
48 | TTTGAGCGTA | 0.988
49 | ATTCAACTTA | 1
50 | TGGCCTATTA | 1
51 | GCTCGAGCTG | 0.994
52 | CCGCGGCAAG | 4.46

Row | Sequence | switch fluorescence ratio
53 | GGGTGAGCCC | 1.01
54 | CAATAATACC | 1.08
55 | GCGCTTTAGG | 1.03
56 | TGATTAGTTT | 1.01
57 | CTCTCTATTG | 0.958
58 | CGAAAGGATA | 1.04
59 | CACCTTCCGA | 1.95
60 | CGGTTGAGAT | 1.01
61 | CAGGGCCAGG | 1.19
62 | GGCAGTAGGA | 1.02
63 | TTATCTCAT | 1.02
64 | ATGGCAAGAA | 1.02
65 | GCATTGAGCG | 0.98
66 | ACGAGGCCTC | 0.987
67 | TTTCGGTAAT | 1.01
68 | AGCGCCCGAG | 0.997
69 | CTCGTAAAGC | 1.56
70 | GTATACTCTC | 1.04
71 | CAACCCCATC | 1.05
72 | ACATTGGGGA | 0.991
73 | TGGCTGATTA | 0.981
74 | CTGCTCACCT | 1.13
75 | ATGGTTGCTT | 1.02
76 | AAAAAATCTC | 1
77 | GGAACCTAAT | 1.02
78 | ACGAGGGCAA | 4.01

Row | Sequence | switch fluorescence ratio
79 | GTTTTCTGAT | 1.01
80 | TTAGAAAAAT | 0.984
81 | TTGGAAAACT | 1.19
82 | GGGAGTCATA | 1.05
83 | TCGGGGAG | 1
84 | CCGGCGGCGG | 1.05
85 | TCTTTAGACT | 0.964
86 | AAGAGCAACA | 1.06
87 | GACTCGAGCC | 1.01
88 | TCTTTTACA | 1.05
89 | TAGCAACCTG | 1.02
90 | TAACCTTTCT | 1.71
91 | GAGATACTA | 1.01
92 | GGTAATATCG | 0.994
93 | AATTTGCCAA | 0.989
94 | TGTCTTTTAT | 0.994
95 | TGATTTTACT | 1.02
96 | TCGTACAG | 1.03
97 | TTTAATTCA | 1
98 | CGTAGCGCG | 0.984
99 | AAATCGCCGG | 1.03
100 | TGAGAGAAGC | 0.975
101 | CTTGGTAGCG | 1.03
102 | ATCCGTAACC | 1.59
103 | CCTTTCACGC | 2.85
104 | GCGTCACTCC | 1.75

Row | Sequence | switch fluorescence ratio
105 | AAACCGAGCC | 2.28
106 | CGGGTTCACT | 1.09
107 | GATTCGACT | 0.981
108 | GCAAAGATGA | 1
109 | TTGTTGGACA | 0.998
110 | CCATAGGACG | 0.999
111 | TCTGGGCTAG | 1.02
112 | ACGGCCGTAT | 1.01
113 | AGTTTCAAAC | 0.937
114 | CCATTGGCAA | 0.997
115 | GTTATTCC | 1.11
116 | GGAGGTTGAC | 1.01
117 | GTGCAAACAT | 1.05
118 | TAGTACCTTA | 1.08
119 | TGAGCATTTT | 1.02
120 | GGATTTAGAT | 0.98
121 | GAGTGCGG | 1.02
122 | CATATGGTA | 1.06
123 | TCAACCACCA | 1.09
124 | ACTAGGAAGG | 0.99
125 | GGGATATGAC | 1.04
126 | GGAAGTTGG | 0.935
127 | TGGTTCCCCC | 1.4
128 | AGAAGGCGAT | 0.982
129 | ATCCGACTTA | 1.03
130 | GTGGGTATCG | 0.985

Row | Sequence | switch fluorescence ratio
131 | GCCTGAAGGT | 1.01
132 | CAGTTGCAGC | 1.03
133 | CAAGCCTGGT | 1
134 | GGTGTGCA | 0.954
135 | GTCCTCGGA | 1.05
136 | ATTGGGTCAG | 1.04
137 | ACCCGCGCAT | 2.38
138 | AAGCCCGTAT | 1
139 | TTACTAACCC | 1.02
140 | GAGGCCGGTT | 1.04
141 | GCAATGATTC | 1.32
142 | AATATTCTT | 1.02
143 | AAGCTTTTTA | 1.02
144 | GCGGGGATGG | 0.96
145 | CCGATAGTTG | 1.08
146 | GTTACTGTTA | 1.04
147 | TCGCGGGTAT | 1.01
148 | AGTATCCGGG | 0.988
149 | CAATGATGTT | 1.03
150 | GGATGATACG | 0.978
151 | TCTGTTATGA | 0.967
152 | TATCTAAAAA | 0.984
153 | GCCTTGGTCC | 1.06
154 | AATTCGCGAG | 0.987
